Experimental data from PubChem BioAssay AID488969 (Vanderbilt High Throughput Screening Facility, 2010).
In all, about 110,000 compounds were measured (“z-score”: median about -0.1, highest 2% from about 2 on). Some of the results follow. Calls of active or inactive are those of the source.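 How the source made its calls: active means z-score in the third read window above 3 or below -3; inactive means the rest.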

molecular target: Metabotropic glutamate receptor 8 (Rattus norvegicus) (UniProt P70579); experiment: rat mGluR8 modulators via GIRK flux, primary screen, cell-based, thallium flux, HTS (AID 488969); conditions: HEK293 rat mGluR8, GIRK (G protein-gated inwardly rectifying potassium channel) thallium flux, FluoZin2; at 10 µM; stronger effect = higher value; submaximal glutamate (EC20) added with thallium
Chain of UniProt P70579 (P70579 whole entry, looked up): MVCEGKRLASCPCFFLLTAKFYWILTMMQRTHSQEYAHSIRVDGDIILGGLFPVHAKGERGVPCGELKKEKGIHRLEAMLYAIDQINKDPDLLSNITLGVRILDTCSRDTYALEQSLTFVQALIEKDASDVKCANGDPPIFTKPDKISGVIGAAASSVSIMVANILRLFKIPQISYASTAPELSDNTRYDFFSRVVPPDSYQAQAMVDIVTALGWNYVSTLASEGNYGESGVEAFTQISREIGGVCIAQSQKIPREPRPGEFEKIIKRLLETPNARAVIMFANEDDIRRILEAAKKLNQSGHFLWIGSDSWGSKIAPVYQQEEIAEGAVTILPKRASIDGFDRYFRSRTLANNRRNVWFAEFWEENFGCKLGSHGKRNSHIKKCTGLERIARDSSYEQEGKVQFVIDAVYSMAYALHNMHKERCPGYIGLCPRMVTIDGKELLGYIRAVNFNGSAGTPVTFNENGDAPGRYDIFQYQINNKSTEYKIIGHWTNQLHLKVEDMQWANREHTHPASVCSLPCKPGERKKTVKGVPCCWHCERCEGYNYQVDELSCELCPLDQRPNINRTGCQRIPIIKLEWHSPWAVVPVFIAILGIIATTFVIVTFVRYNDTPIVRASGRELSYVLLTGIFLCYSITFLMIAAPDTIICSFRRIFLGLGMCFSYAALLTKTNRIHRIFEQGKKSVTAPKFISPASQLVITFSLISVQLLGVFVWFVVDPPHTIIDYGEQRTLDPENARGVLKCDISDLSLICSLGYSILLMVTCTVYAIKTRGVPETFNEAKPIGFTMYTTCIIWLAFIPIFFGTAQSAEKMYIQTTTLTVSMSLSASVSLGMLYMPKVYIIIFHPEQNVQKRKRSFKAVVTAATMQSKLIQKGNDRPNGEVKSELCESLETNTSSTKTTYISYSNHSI

SMILES	z-score
O=C(NCCN1CCOCC1)c1cc2cc(Br)ccc2oc1=O	0.0205
CCOc1ccc(-c2noc(COC)n2)cc1OC	-0.328
CN(C)c1ccc(NC(=O)/C=C/c2ccccc2Cl)cc1	-0.0538
Fc1ccc(C2NCCn3cccc32)cc1 (stereo unspecified)	0.135
Cc1ccc(C(O)c2ccncc2)cc1 (stereo unspecified)	-0.224
COc1ccc(CCN2C(=O)NC(NS(=O)(=O)c3ccc(N)cc3)(C(F)(F)F)C2=O)cc1OC (stereo unspecified)	0.146
CCCCNC1CCS(=O)(=O)C1 (stereo unspecified)	-0.274
CCOC(=O)n1c(SCC(=O)N(CC)CC)nc2ccccc21	-0.422
O=C(Cc1n[nH]c(=O)[nH]c1=O)N/N=C/c1ccccc1O	-0.173
Cc1c(N2C(=O)CSC23C(=O)Nc2ccccc23)c(=O)n(-c2ccccc2)n1C (stereo unspecified)	-1.33
Cc1ccc(-c2nnc(N(C)C(=O)c3cccnc3)s2)cn1	-0.196
C/C(=N\NC(=O)C1CC1c1ccccc1)c1cccc([N+](=O)[O-])c1 (stereo unspecified)	-0.468
O=C(CSc1n[nH]c(-c2ccc(S(=O)(=O)N3CCCCC3)cc2)n1)Nc1nccs1	0.951
CC(C)(C)c1ccc(/C=C/C(=O)N2CCc3ccccc3C2)cc1	0.00531
c1ccc(-c2nc(Sc3ncnc4c3cnn4-c3ccccc3)n[nH]2)cc1	-0.225
COc1ccc2c(c1)-c1nc(NC(=O)c3cccs3)sc1CC2	-0.897
CC1CCN(C(=O)c2cc(Cl)nc3ccccc23)CC1	-0.231
Cc1ccc2c(c1)CCCN2C(=O)c1c(C)noc1C	-0.139
O=C(Nc1cccc2c1CCCC2)C1CCN(C(=O)NC2CCCCC2)CC1	-0.522
CN(C)C(=O)c1ccccc1Sc1ccc(Cl)cc1Cl	-0.793
O=C(COc1ncnc2c1cnn2-c1ccccc1)Nc1ccc(S(=O)(=O)N2CCCCC2)cc1	-0.0899
O=C(NNc1cc(N2CCOCC2)nc(N2CCOCC2)n1)c1ccc(Cl)c(Cl)c1	0.14
O=C(Nc1ccccc1)Nc1nnc(CSCc2ccccc2Cl)s1	0.0284

SMILES	z-score
CC(C)Cc1nnc(NC(=O)Cc2ccccc2[N+](=O)[O-])s1	0.0608
CCc1cccc(CC)c1NC(=O)C1CN(S(=O)(=O)c2ccccc2)CCN1S(=O)(=O)c1ccccc1 (stereo unspecified)	-0.125
CCCn1nc2cc(C(=O)NC3CCCc4ccccc43)ccc2c1OCC (stereo unspecified)	-0.533
O=C(OCCCN=C1NS(=O)(=O)c2ccccc21)C1CC(=O)N(c2ccc(Cl)cc2)C1 (stereo unspecified)	-0.412
COc1ccc(CNC(=S)N/N=C/c2ccncc2)cc1	-0.111
CN1CCN(CCCNC(=O)c2ccc(CS(=O)(=O)c3ccc(Br)cc3)o2)CC1	-0.0805
O=C(Nc1ccc2oc(-c3ccccc3)nc2c1)c1ccncc1	-0.137
COc1ccc(Oc2nccc(-c3ccccc3)c2C#N)cc1	-0.13
Cc1ccc(CN2CCN(/N=C/c3ccc(C(F)(F)F)cc3)CC2)cc1	0.225
O=C(Cn1c(=O)n(CC2CCCO2)c(=O)c2ccccc21)c1ccccc1 (stereo unspecified)	-1.04
COC(=O)Cc1cc(=O)n2[nH]c(C(F)(F)F)nc2n1	-0.024
CCn1c(SCc2cccnc2)nnc1-c1c[nH]c2ccccc12	0.0713
Cc1ccc(-c2noc(CCC(=O)NCC3CCCO3)n2)cc1 (stereo unspecified)	-0.187
C=CCNC(=S)NNC(=O)c1cccn(Cc2ccc(Cl)cc2)c1=O	-0.127
O=C1c2ccccc2C(=O)N1CCCCCc1nc(-c2ccccc2)no1	1.38
Cc1cc2ncn(S(=O)(=O)c3ccc(S(=O)(=O)N4CCOCC4)cc3)c2cc1C	0.0555
Cc1cc2nnc(SCC(=O)N3CCN(c4ccccc4)CC3)n2c(N)n1	-0.994
Cn1nc(-c2ccc(Cl)cc2)c2cc(C(=O)N3CCN(c4ccccn4)CC3)sc21	-0.534
NC(=S)N/N=C/c1ccc(-c2cc(Cl)cc(Cl)c2)o1	0.987
CCNc1nc(NCC)nc(OCCOC(=O)COc2ccc(Cl)cc2Cl)n1	-0.468
COc1cc(OC)nc(S(C)(=O)=O)n1	-0.0178
COc1ccc(CCNC(=O)CN2C(=O)c3ccccc3S2(=O)=O)cc1OC	-0.716
CCN1CCN(Cc2ccc(OC)c(OCc3ccccc3)c2)CC1	0.316

SMILES	z-score
O=C(NC1CC2CCC(C1)N2C(=O)NCc1ccccc1)NC12CC3CC(CC(C3)C1)C2 (stereo unspecified)	-0.235
Cc1ccc(C)c(NC(=O)C2C3CCCC2C3c2ccccc2)c1 (stereo unspecified)	0.174
O=C(CCC(=O)NC1CC1)Nc1nnc(C2CCCCC2)s1	-0.164
Cc1ccc(CC2(O)CC(C)N(C)CC2C)c(C)c1 (stereo unspecified)	-0.292
COC(=O)c1cc(C(=O)Nc2ccc(C)cn2)cc([N+](=O)[O-])c1	0.462
CCOc1ccc(OCC)c(NC(=O)C2CCN(c3ncccn3)CC2)c1	0.239
c1coc(Cn2c(SCc3nc4ccccc4[nH]3)nnc2-c2cccs2)c1	-0.59
O=C(O)/C=C\C(=O)Nc1ccc(Oc2ccccc2)cc1	-0.219
CN(C)CCCN(C(=O)c1sc2ccccc2c1Cl)c1nc2ccc(F)cc2s1	-0.181
O=C(c1cccc(F)c1)N1CCCN(C(=O)c2cccc(F)c2)CC1	0.0199
CCOc1ccc(NC(=O)C2CCC(CNc3c(N4CCOCC4)c(=O)c3=O)CC2)cc1 (stereo unspecified)	-0.502
Cc1cc(=O)oc(C)c1C(=O)NCC(C)NC(=O)c1c(C)cc(=O)oc1C (stereo unspecified)	-0.129
Cc1ccc2nc(N(CCN(C)C)C(=O)/C=C/c3cccs3)sc2c1	-0.426
CC(=O)CSc1nnc(NC(=O)CCc2ccccc2)s1	0.11
CCN(CC)C(=O)C(=O)N/N=C/c1cccc(Br)c1	-0.0265
O=C(NCc1ccc(Cl)cc1)c1cc2c(nc3sccn32)s1	-0.423
COc1ccccc1NC(=S)NNC(=O)c1cc(C)n(C)n1	-0.168
c1ccc(-c2cn3c(n2)SCC3)cc1	-0.712
Cc1ccc(CSCC(=O)Nc2ccc3c(c2)OCO3)cc1	1.73
COc1ccc(OCC(=O)Nc2ccc(N3CCOCC3)c(Cl)c2)cc1	-0.665
CCCCC(=O)Nc1ccc(NC(=O)CC)cc1OC	-0.0947
O=C(NC1CCCC1)C(c1cccs1)N(CC1CCCO1)C(=O)Cc1cccs1 (stereo unspecified)	0.558
CCCOc1ccccc1C1CC(=O)NC2=C1C(=O)CCC2 (stereo unspecified)	-0.715

SMILES	z-score
Cc1ccc(NC2=CC(=O)CCC2)cc1C	-0.205
NC(=O)C1CCN(C(=O)CN2CCN(c3cccc(C(F)(F)F)c3)CC2)CC1	0.6
CC(C)N1CCc2c(sc(NC(=S)NC(=O)c3ccccc3)c2C#N)C1	0.514
CCOc1cc(N2CCOCC2)c(OCC)cc1NC(=O)CCS(=O)(=O)c1ccc(Cl)cc1	0.22
COc1ccc(-c2cc(OC(=O)c3ccc(F)cc3)c3c(C)oc(C)c3c(=O)c2)cc1	0.838
COc1ccccc1NCC(=O)N/N=C(\C)c1ccc(Br)s1	-0.279
COc1cc(C)c(N(C(C)=O)c2ccccc2)c(C)c1	0.803
OC(COC1CCCCC1)CN1CCN(c2ccccc2)CC1 (stereo unspecified)	0.212
C=CCOC(=O)C(C#N)c1nc2ccccc2nc1N1CCN(c2ccccc2OCC)CC1 (stereo unspecified)	0.34
Cc1cc(C)c(OCCOCCN2CCNCC2)c(C)c1	0.331
Cn1c(=O)n(Cc2ccccc2F)c(=O)c2c1nc1n2CCCN1CCc1ccccc1	-0.165
CCN(CC)c1ccc(NC(=O)CN2C(=O)CSc3ncccc32)c(C)c1	-0.253
CCOc1cccc(C(=O)N2CCCCC2c2cccnc2)c1 (stereo unspecified)	-0.337
CCOC(=O)C1CCCN(C(=O)CN(c2ccc(OC)cc2)S(=O)(=O)c2c(C)noc2C)C1 (stereo unspecified)	-0.0596
COc1ccc(-c2noc(CCN3C(=O)c4ccccc4C3=O)n2)cc1OC	-0.0499
O=C(c1cn(-c2ccccc2)nc1-c1ccncc1)n1nnc2ccccc21	-0.534
CCc1ccc(C2N3CC4([N+](=O)[O-])CN2CC([N+](=O)[O-])(C3)C4(C)C)cc1 (stereo unspecified)	0.152
Cc1cc(C)n2nc(SCN3C(=O)c4ccccc4C3=O)nc2n1	-0.852
COC(CN(C(=O)CCl)C(C(=O)NC1CCCCC1)c1ccc(Cl)cc1)OC (stereo unspecified)	-0.0173
Cc1cc(OCc2cn3cccnc3n2)ccc1Cl	-0.0973
CCOc1cc(C(=O)N2CCN(C/C=C/c3ccccc3)CC2)cc(OCC)c1OCC	-0.121
CC(=O)NCC(=O)N(C)C(C(=O)Nc1ccc2c(c1)OCCO2)c1ccccc1 (stereo unspecified)	0.411
COc1ccccc1NC(=O)C(=O)N/N=C/c1cccs1	-0.198

SMILES	z-score
COc1ccc(N(C(=O)c2ccccc2OC(C)=O)C(C)C2CC2)cc1 (stereo unspecified)	0.376
COc1ccc2nc(Sc3c([N+](=O)[O-])nc(C)n3Cc3ccccc3)[nH]c2c1	-0.169
CC(C)n1cc(/C=C(\C#N)S(=O)(=O)c2ccccc2)c2ccccc21	-0.867
O=C(NCc1ccco1)c1ccc(Cn2c(=O)c3ccccc3n(Cc3cccc(F)c3)c2=O)cc1	-0.182
O=C(NN=C1C2CC3CC(C2)CC1C3)c1cccs1	0.589
Cc1c(Cc2ccc3c(c2)OCO3)sc(NC(=O)C(C)(C)C)c1C#N	0.122
CC(C)(C)c1ccc(S(=O)(=O)N2CC(=O)Nc3ccccc32)cc1	-0.23
O=C(CSc1nc2ccccc2s1)N1c2ccccc2Sc2ccc(C(F)(F)F)cc21	0.197
CC1=C(C(N)=O)C(c2sccc2C)n2nnnc2N1 (stereo unspecified)	0.0641
Cc1ccc(-c2csc(NC(=O)C3=NN(c4ccccc4)C(=O)CC3)n2)cc1	0.0259
CCSc1nnc(NC(=O)C2C3C=CC(C3)C2C(=O)O)s1 (stereo unspecified)	-1.01
COc1ccc2ccc3c(c2c1)N=C[C@]1(O3)N(C)c2ccccc2C1(C)C	-0.024
Clc1ccc2[nH]c(-c3ccccc3)cc2c1	-0.113
CCCCc1ccc(NC(=O)COc2ccc(C(=O)Nc3ccccc3OCC)cc2)cc1	-0.373
CSc1ccccc1-c1nnc(-c2ccccc2)o1	-0.616
COc1ccc(S(=O)(=O)N(C)CC(=O)NCCC2=CCCCC2)cc1C	-0.149
O=C(Nc1ccc2nsnc2c1)NC1CCCCC1	-0.224
CCC/C(=N/NC(=O)c1cccc(Cl)c1)c1ccccc1	active: 5.45
Fc1ccc(-c2ccc(-c3nn4c(-c5ccco5)nnc4s3)o2)cc1	1.38
